This is one part of the list. The main result of the screen is listed elsewhere. These columns were measured beside it and carry no call.

Common to all, as to experiment: Primary Screen for Target Class Profiling of Small Molecule Inhibitors of Methyltransferases
Assay [1] concerns the target Glycine N-methyltransferase (Homo sapiens) (UniProt Q14749). To be noted: purified enzyme, MTase-Glo SAH luminescence; measured here: GNMT inhibition; at 40 µM; stronger effect = lower value. The procedure, abridged: (§1)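 Each enzyme was reacted with SAM and its substrate, with compounds tested once at 40 uM; SAH formed was read by MTase-Glo luminescence.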
Assay [2] addresses Guanidinoacetate N-methyltransferase (Homo sapiens) (UniProt Q14353). To be noted: purified enzyme, MTase-Glo SAH luminescence; measured here: GAMT inhibition; at 40 µM; stronger effect = lower value. In outline: as §1
Assay [3] addresses Histamine N-methyltransferase (Homo sapiens) (UniProt P50135). The following applies: purified enzyme, MTase-Glo SAH luminescence; measured here: HNMT inhibition; at 40 µM; stronger effect = lower value. The procedure, abridged:
as §1

Assay [4] has as its target Nicotinamide N-methyltransferase (Homo sapiens) (UniProt P40261). The following applies: purified enzyme, MTase-Glo SAH luminescence; measured here: NNMT inhibition; at 40 µM; stronger effect = lower value. In outline:
as §1

The target of assay [5] is Phenylethanolamine N-methyltransferase (Homo sapiens) (UniProt P11086). To be noted: purified enzyme, MTase-Glo SAH luminescence; measured here: PNMT inhibition; at 40 µM; stronger effect = lower value. In outline:
as §1
% is set by controls: 0 for no effect and ±100 for the full control effect.

In the case of `Cc1cc(NS(=O)(=O)c2ccc3c(c2)n(C)c(=O)n3C)ccc1Br`, the activity change, negative = inhibition in assay [1] was 4.2%; in assay [2], 0%; in assay [3], 5.29%; in assay [4] it was -8.59%; in assay [5] it was 1.53%.

For `CCc1nc(-c2ccc(OC3CCN(S(=O)(=O)Cc4ccccc4)C3)cc2)no1` (stereo not given), the activity change, negative = inhibition was -4.78% in assay [1]; -4.25% in assay [2]; -3.19% in assay [3]; -10.5% in assay [4]; -6.54% in assay [5].

On to `O=C(CCCc1nnc2n3nc(-c4ccccc4)nc3c3ccccc3n12)NCc1ccc(F)cc1`, for which the activity change, negative = inhibition is -5.88% in assay [1]; 4.49% in assay [2]; -1.05% in assay [3]; 3.76% in assay [4]; -7.56% in assay [5].

Regarding `Cn1ccnc1CN1C(=O)CO[C@H]2CN(C3CCCCC3)C[C@H]21`, the activity change, negative = inhibition in assay [1] is -0.142%; in assay [2] it was -0.841%; in assay [3], 0.453%; in assay [4] it was 0.817%; in assay [5], 1.53%.

As for `C=C1CC2C3(C)C(O)CC(=O)C(C)(C)C3C(OC(C)=O)C(OC(C)=O)C2(C)C2C(=O)OC(C)(C(=O)OC)C(=O)C12C` (stereo not given), the activity change, negative = inhibition in assay [1] was 3.88%; in assay [2] it was 5.18%; in assay [3] it was 7.38%; in assay [4], -8.76%; in assay [5], 3.83%.

Regarding `Cc1ccc(CN2C(=O)c3nc4ccccc4n3CC2(C)C(=O)NC2CCCC2)cc1` (stereo not given), the activity change, negative = inhibition came to 2.21% in assay [1]; 0% in assay [2]; 4.59% in assay [3]; 10% in assay [4]; 2.46% in assay [5].

In the case of `Cc1ccc(CNC(=O)Cn2ccc3cc(S(=O)(=O)N4CCCC4)ccc32)cc1`, the activity change, negative = inhibition is -1.74% in assay [1]; -0.468% in assay [2]; -3.68% in assay [3]; -7.62% in assay [4]; -4.41% in assay [5].

In the case of `C=CC(=O)Nc1ccc2ncnc(Nc3ccc(OCc4cccc(F)c4)c(Cl)c3)c2c1`, the activity change, negative = inhibition in assay [1] is 0.295%; in assay [2], -1.06%; in assay [3] it was 5.71%; in assay [4], -13.7%; in assay [5], 5.19%.

Turning to `O=C(Cn1nc2n(CCc3ccccc3)c(=O)c3ccccc3n2c1=O)NCc1ccccc1Cl`, the activity change, negative = inhibition was determined as 5.85% in assay [1]; 2% in assay [2]; 6.04% in assay [3]; 6.47% in assay [4]; 4.82% in assay [5].

Regarding `CC(C)CCNC(=O)C1(C)Cn2c(cc3ccccc32)C(=O)N1Cc1ccc2c(c1)OCO2` (stereo not given), the activity change, negative = inhibition was 2.54% in assay [1]; 3.78% in assay [2]; 5.13% in assay [3]; -1.37% in assay [4]; 0.669% in assay [5].

As to `CC(C)CNC(=O)c1ccc2c(=O)n(Cc3ccccc3)c3nn(Cc4ccc(Cl)cc4)c(=O)n3c2c1`, the activity change, negative = inhibition is -0.216% in assay [1]; 4.72% in assay [2]; 2.47% in assay [3]; -1.06% in assay [4]; -0.276% in assay [5].

Take `Cc1cc(-c2cc(O)ccc2Cl)cc2nnc(Nc3ccc(OCCN4CCCC4)cc3)nc12`: the activity change, negative = inhibition in assay [1] was -2.28%; in assay [2], -6.01%; in assay [3] it was -30.3%; in assay [4], -26.5%; in assay [5], -5.98%.

Regarding `CC(C)OCCCn1c(=O)c2ccc(Cl)cc2n2c(SCc3cccc(F)c3)nnc12`, the activity change, negative = inhibition in assay [1] is 2.46%; in assay [2], 1.44%; in assay [3], 5.88%; in assay [4], -4.88%; in assay [5], 0.206%.

As for `NS(=O)(=O)c1ccc(-n2nc(C3CCOC3)nc2C2CCC2)cc1` (stereo not given), the activity change, negative = inhibition is 2.6% in assay [1]; 0.802% in assay [2]; -0.514% in assay [3]; 4.48% in assay [4]; -2.76% in assay [5].

Consider `CCOC(=O)c1cc2n(n1)CC(C)(C(=O)NCCC(C)C)N(c1cccc(Cl)c1C)C2=O` (stereo not given), for which the activity change, negative = inhibition in assay [1] was -7.95%; in assay [2] it was 0.523%; in assay [3], -1.55%; in assay [4], 3.7%; in assay [5], -3.15%.

Regarding `CCOC(=O)CSc1nc2c(sc3ccccc32)c(=O)n1CCCN1CCCC1`, the activity change, negative = inhibition is -12.1% in assay [1]; -6.2% in assay [2]; -25.2% in assay [3]; -26.2% in assay [4]; -9.61% in assay [5].

For the compound `CC(C)OCCCNC(=O)CCc1nnc2n(CCCOC(C)C)c(=O)c3ccccc3n12`, the activity change, negative = inhibition was -1.22% in assay [1]; 20.4% in assay [2]; 9.34% in assay [3]; 6.45% in assay [4]; 2.58% in assay [5].

Regarding `CC(=O)N1CCCN(c2ncnc3c2CN(C2CCCCC2)C(=O)CN3C)CC1`, the activity change, negative = inhibition in assay [1] was -2.53%; in assay [2], -0.785%; in assay [3] it was 0.535%; in assay [4] it was -6.75%; in assay [5], -2.72%.

Take `Cc1ccc(C)c(N2CCN(C(=O)CCc3nnc4n(CCCOC(C)C)c(=O)c5ccccc5n34)CC2)c1`: the activity change, negative = inhibition in assay [1] was -19.2%; in assay [2], 0%; in assay [3] it was -3.23%; in assay [4] it was -11.1%; in assay [5] it was -4.62%.

Turning to `CN1CCN(C(=O)c2cncc(N[C@H]3C[C@@H]4OCC[C@H]34)n2)CC1`, the activity change, negative = inhibition in assay [1] is -3.22%; in assay [2], -5.58%; in assay [3] it was -4.22%; in assay [4], -2.56%; in assay [5] it was -18.3%.

Consider `CN(C)CC/C=C1\c2ccccc2COc2ccccc21`, for which the activity change, negative = inhibition in assay [1] was 1.58%; in assay [2] it was 15.6%; in assay [3], -21.4%; in assay [4], -5.7%; in assay [5], 2.09%.

`COc1cc(O)cc(C)c1C(=O)O[C@H]1[C@@H](O)[C@@H](n2ccc(=O)[nH]c2=O)O[C@@H]1CO`: the activity change, negative = inhibition was -0.035% in assay [1]; -3.84% in assay [2]; -0.892% in assay [3]; -14.6% in assay [4]; 1.36% in assay [5].

Take `COC(=O)c1ccc(NCC2=CC(C)(C)COc3ccc(OC)cc32)cc1`: the activity change, negative = inhibition in assay [1] was -6.21%; in assay [2] it was -10.3%; in assay [3], -6.14%; in assay [4], -10.8%; in assay [5] it was -11.6%.

As for `COC(=O)C(Cc1ccccc1)NC(=O)c1ccccc1` (stereo not given), the activity change, negative = inhibition in assay [1] is 0%; in assay [2] it was 8.14%; in assay [3], 9.24%; in assay [4], -5.29%; in assay [5], 4.51%.

Consider `C[C@H]1CC[C@@]2(OC1)O[C@H]1CC3[C@@H]4CC[C@@H]5C[C@@H](O[C@@H]6O[C@H](CO)[C@@H](O[C@@H]7O[C@@H](C)[C@H](O)[C@@H](O)[C@H]7O)[C@H](O)[C@H]6O[C@@H]6O[C@H](CO)[C@@H](O)[C@H](O)[C@H]6O)CC[C@]5(C)C4CC[C@]3(C)[C@H]1[C@@H]2C` (stereo not given in full), for which the activity change, negative = inhibition was 0.295% in assay [1]; 12.9% in assay [2]; 9.42% in assay [3]; 0.964% in assay [4]; -1.7% in assay [5].

Turning to `CCC(=O)O[C@H]1C(C)(C)[C@H]([C@@H](O)C(=O)OC)[C@]2(C)C(=O)[C@@]1(O)[C@H]1O[C@]13C1CC(=O)O[C@@H](c4ccoc4)[C@]1(C)CCC32` (stereo not given in full), the activity change, negative = inhibition is 0% in assay [1]; -15.5% in assay [2]; -1.89% in assay [3]; -26.2% in assay [4]; -5.79% in assay [5].

With `CC(C)C1=NOC2(CCN(C(=O)c3ccccc3F)CC2)C1`, the activity change, negative = inhibition in assay [1] was -4.89%; in assay [2] it was -12.4%; in assay [3] it was -2.65%; in assay [4], -8.44%; in assay [5] it was -10.4%.

Turning to `CC1(C(=O)NCc2ccccc2)Cn2c(nc3ccccc32)C(=O)N1CCCc1ccccc1` (stereo not given), the activity change, negative = inhibition in assay [1] was -1.53%; in assay [2], 4.17%; in assay [3] it was -1.17%; in assay [4], 3.65%; in assay [5] it was -1.28%.

Regarding `Cc1ccc(Cn2c(=O)c3ccccc3n3c(=O)n(Cc4ccccc4F)nc23)cc1`, the activity change, negative = inhibition in assay [1] is 3.78%; in assay [2], 4.31%; in assay [3], 7.07%; in assay [4], -0.614%; in assay [5], -0.002%.

The values are drawn from PubChem BioAssay AID1745853 (National Center for Advancing Translational Sciences (NCATS), 2022).
